The values below come from article PMC2991254.

Amino acid sequences for entries named in this document (tags omitted).
UniProt O22456: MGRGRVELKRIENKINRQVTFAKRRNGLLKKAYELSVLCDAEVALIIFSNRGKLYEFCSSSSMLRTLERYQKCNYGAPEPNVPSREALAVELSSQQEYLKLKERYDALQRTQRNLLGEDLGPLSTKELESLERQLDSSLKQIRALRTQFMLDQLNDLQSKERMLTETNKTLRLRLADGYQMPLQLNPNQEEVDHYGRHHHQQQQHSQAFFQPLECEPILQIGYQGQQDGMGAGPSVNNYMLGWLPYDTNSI
UniProt O64645: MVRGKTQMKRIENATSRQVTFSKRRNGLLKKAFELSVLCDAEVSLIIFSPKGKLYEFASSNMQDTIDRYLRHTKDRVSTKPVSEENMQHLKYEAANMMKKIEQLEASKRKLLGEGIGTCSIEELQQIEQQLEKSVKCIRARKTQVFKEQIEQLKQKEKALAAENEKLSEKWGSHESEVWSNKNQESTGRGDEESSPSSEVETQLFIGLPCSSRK
UniProt A2RVQ5: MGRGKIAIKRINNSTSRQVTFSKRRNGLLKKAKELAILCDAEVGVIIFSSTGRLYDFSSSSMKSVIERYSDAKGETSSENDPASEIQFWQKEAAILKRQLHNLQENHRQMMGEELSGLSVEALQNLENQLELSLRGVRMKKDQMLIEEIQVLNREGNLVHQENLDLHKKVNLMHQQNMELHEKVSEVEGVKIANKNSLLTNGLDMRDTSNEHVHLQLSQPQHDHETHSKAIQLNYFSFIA
UniProt Q38876: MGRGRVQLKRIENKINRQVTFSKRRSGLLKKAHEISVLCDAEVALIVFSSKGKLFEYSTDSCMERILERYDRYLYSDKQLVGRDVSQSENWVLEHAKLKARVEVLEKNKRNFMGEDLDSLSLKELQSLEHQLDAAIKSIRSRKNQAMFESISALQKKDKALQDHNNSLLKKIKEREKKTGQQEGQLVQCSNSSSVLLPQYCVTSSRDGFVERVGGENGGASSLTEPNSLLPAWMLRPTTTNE
UniProt Q9SI38: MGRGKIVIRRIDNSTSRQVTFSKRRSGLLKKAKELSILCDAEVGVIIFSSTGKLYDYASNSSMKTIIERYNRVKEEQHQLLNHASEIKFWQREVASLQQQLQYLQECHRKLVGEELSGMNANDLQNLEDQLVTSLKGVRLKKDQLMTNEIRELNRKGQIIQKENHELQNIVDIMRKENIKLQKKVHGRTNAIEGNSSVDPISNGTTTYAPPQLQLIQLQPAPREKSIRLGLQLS
UniProt P29386: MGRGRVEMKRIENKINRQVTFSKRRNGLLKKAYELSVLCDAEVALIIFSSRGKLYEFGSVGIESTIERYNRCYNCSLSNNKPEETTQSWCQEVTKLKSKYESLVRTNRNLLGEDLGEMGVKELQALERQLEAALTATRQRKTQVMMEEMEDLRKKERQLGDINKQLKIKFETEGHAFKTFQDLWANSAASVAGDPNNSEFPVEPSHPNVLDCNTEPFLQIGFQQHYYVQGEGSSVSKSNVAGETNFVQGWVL
UniProt P29385: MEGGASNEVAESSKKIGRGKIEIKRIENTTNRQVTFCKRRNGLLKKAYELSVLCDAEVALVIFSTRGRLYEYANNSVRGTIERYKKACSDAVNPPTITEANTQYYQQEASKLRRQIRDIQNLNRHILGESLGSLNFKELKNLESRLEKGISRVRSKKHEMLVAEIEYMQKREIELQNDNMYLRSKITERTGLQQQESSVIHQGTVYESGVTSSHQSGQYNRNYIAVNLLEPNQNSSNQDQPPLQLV
UniProt Q39081: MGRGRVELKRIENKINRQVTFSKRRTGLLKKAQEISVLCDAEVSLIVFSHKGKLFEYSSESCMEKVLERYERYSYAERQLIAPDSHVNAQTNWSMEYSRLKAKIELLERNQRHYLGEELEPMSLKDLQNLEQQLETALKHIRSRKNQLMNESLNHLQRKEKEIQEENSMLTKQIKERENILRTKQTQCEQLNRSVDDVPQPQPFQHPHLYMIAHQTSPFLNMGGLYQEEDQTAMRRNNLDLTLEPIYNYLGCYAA
UniProt P29381: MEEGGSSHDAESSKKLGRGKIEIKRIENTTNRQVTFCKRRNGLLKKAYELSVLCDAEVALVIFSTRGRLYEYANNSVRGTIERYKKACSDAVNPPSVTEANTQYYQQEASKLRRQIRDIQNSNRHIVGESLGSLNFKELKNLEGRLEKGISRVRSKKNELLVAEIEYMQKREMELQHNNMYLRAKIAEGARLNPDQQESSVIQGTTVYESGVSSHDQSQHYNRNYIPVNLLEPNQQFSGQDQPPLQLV
UniProt Q38840: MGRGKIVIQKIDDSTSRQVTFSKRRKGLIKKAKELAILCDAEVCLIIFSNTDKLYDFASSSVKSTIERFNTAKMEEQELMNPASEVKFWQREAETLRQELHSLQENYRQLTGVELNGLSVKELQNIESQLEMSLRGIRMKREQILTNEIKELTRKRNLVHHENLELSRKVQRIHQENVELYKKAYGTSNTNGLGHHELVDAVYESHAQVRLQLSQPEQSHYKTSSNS
UniProt Q9SZJ6: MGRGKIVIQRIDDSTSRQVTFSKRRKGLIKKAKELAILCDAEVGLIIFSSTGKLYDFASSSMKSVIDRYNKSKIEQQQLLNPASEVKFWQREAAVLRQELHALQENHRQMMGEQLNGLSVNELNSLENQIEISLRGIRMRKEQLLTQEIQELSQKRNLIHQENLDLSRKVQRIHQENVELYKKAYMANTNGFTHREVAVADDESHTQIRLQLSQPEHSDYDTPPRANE
UniProt Q38838: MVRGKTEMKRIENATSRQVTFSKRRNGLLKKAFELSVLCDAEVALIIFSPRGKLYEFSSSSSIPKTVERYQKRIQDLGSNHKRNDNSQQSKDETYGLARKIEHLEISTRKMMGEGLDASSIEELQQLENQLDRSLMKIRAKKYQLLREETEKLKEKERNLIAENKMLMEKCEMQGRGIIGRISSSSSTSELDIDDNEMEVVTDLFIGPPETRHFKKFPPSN
UniProt Q9FIS1: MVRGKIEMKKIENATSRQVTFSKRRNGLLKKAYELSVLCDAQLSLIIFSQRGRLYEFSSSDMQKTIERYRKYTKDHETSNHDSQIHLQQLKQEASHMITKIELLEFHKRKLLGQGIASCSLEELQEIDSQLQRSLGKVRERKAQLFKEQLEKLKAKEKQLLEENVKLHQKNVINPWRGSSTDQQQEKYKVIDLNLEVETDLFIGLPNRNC

Where a chain is given by its changes, count along the chain named. In names and notes the source's numbering stands. These are yes or no findings as the source states them, for the method shown. Some entries that bind do so weakly or less than the wild type.

What all share (experiment): two-hybrid; matrix-based yeast two-hybrid, GAL4-AD and GAL4-BD fusions (pDEST22, pDEST32), in duplicate, at least two reporter genes; medium lacking Leu, Trp and His with 1 mM 3-amino-1,2,4-triazole, growth scored after 4 days at 20°C
The target in assay [1] is SEP3 (Arabidopsis thaliana) (UniProt O22456).
In assay [2] the target is SUPPRESSOR OF OVEREXPRESSION OF CO 1 (Arabidopsis thaliana) (UniProt O64645).
For assay [3], the target named is AGL16 (Arabidopsis thaliana) (UniProt A2RVQ5).
Assay [4] addresses FRUITFUL (Arabidopsis thaliana) (UniProt Q38876).
Assay [5] addresses ANR1 (Arabidopsis thaliana) (UniProt Q9SI38).
Assay [6] deals with T1, AGL13 (Arabidopsis thaliana) (UniProt Q38837).
T1 sequence: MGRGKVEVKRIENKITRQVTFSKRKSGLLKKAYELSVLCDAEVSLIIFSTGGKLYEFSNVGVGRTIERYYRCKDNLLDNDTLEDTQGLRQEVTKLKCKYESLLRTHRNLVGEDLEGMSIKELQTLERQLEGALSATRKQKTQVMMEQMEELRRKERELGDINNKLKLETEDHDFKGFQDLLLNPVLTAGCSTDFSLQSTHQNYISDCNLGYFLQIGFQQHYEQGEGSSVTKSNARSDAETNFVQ

Assay [7] concerns the target AGL6 (Arabidopsis thaliana) (UniProt P29386).
For assay [8], the target named is …OOF2 (Arabidopsis thaliana) (UniProt P29385).
Assay [9] deals with CAULIFLOWER (Arabidopsis thaliana) (UniProt Q39081).
For assay [10], the target named is …OOF1 (Arabidopsis thaliana) (UniProt P29381).
Assay [11] has as its target AGL17 (Arabidopsis thaliana) (UniProt Q38840).
The target of assay [12] is SHORT … PHASE (SVP1) (Arabidopsis thaliana) (UniProt Q9FVC1).
Assay [13] has as its target AGL21 (Arabidopsis thaliana) (UniProt Q9SZJ6).
The target of assay [14] is AGAMOUS LIKE14 (Arabidopsis thaliana) (UniProt Q38838).
In assay [15] the target is T2, XAL1 (Arabidopsis thaliana) (UniProt Q38841).
T2 sequence: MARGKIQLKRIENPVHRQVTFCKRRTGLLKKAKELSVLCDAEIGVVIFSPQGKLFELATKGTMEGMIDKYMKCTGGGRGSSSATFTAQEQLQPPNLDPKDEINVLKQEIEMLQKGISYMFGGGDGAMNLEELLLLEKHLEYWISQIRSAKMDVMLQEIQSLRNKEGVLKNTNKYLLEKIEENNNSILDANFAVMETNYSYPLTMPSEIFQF

The target in assay [16] is AGL42 (Arabidopsis thaliana) (UniProt Q9FIS1).

B1: AGL24 R61S (protein, UniProt O82794 1-220)
chain: MAREKIRIKKIDNITARQVTFSKRRRGIFKKADELSVLCDADVALIIFSATGKLFEFSSSSMRDILGRYSLHASNINKLMDPPSTHLRLENCNLSRLSKEVEDKTKQLRKLRGEDLDGLNLEELQRLEKLLESGLSRVSEKKGECVMSQIFSLEKRGSELVDENKRLRDKLETLERAKLTTLKEALETESVTTNVSSYDSGTPLEDDSDTSLKLGLPSWE
As to B1, the binding entry in assay [1] is on record as “binds”; in assay [2] it was “binds”; in assay [3], “binds”; in [4], “binds”; in assay [5], “no binding”; in assay [6] it was “no binding”. Moreover, the binding entry in assay [7] is “no binding”; in assay [8], “binds”; in assay [9] it was “no binding”; in [10], “binds”; in assay [11] it was “no binding”; in assay [12], “no binding”. Further, the binding entry in assay [13] was “binds”; in assay [14], “binds”; in assay [15], “no binding”; in [16], “binds”.

B2: AGAMOUS-LIKE24 (protein, UniProt O82794 1-220)
chain: B1 chain with S61R
For the molecule B2, the binding entry in assay [1] is “binds”; in assay [2] it was “binds”; in assay [3], “binds”; in [4], “binds”; in [5], “no binding”; in assay [6], “no binding”. Further, the binding result is “binds” in [7]; “no binding” in [8]; “no binding” in [9]; “binds” in assay [10]; “no binding” in assay [11]; “no binding” in assay [12]. Moreover, the binding entry in assay [13] is “binds”; in [14] it was “binds”; in assay [15], “no binding”; in assay [16] it was “no binding”.
